Results from PubChem BioAssay AID488969 (Vanderbilt High Throughput Screening Facility, 2010).
Several values for one entry are separate records, joined by “and”; a condition that tells them apart may be missing. Equal entries are not always repeated. The full ranking holds about 110,000 compounds; the median of “z-score” is about -0.1, and the highest 2% start at about 2. This is one part of the list.

target: Metabotropic glutamate receptor 8 (Rattus norvegicus) (UniProt P70579); assay: mGluR8 Gi/Go-coupled signaling modulation – cell-based, rat, thallium flux, HTS, primary screen (AID 488969); conditions: HEK293 rat mGluR8, GIRK (G protein-gated inwardly rectifying potassium channel) thallium flux, FluoZin2; at 10 µM; stronger effect = higher value; submaximal glutamate (EC20) added with thallium
UniProt P70579, sequence (P70579 whole entry, looked up): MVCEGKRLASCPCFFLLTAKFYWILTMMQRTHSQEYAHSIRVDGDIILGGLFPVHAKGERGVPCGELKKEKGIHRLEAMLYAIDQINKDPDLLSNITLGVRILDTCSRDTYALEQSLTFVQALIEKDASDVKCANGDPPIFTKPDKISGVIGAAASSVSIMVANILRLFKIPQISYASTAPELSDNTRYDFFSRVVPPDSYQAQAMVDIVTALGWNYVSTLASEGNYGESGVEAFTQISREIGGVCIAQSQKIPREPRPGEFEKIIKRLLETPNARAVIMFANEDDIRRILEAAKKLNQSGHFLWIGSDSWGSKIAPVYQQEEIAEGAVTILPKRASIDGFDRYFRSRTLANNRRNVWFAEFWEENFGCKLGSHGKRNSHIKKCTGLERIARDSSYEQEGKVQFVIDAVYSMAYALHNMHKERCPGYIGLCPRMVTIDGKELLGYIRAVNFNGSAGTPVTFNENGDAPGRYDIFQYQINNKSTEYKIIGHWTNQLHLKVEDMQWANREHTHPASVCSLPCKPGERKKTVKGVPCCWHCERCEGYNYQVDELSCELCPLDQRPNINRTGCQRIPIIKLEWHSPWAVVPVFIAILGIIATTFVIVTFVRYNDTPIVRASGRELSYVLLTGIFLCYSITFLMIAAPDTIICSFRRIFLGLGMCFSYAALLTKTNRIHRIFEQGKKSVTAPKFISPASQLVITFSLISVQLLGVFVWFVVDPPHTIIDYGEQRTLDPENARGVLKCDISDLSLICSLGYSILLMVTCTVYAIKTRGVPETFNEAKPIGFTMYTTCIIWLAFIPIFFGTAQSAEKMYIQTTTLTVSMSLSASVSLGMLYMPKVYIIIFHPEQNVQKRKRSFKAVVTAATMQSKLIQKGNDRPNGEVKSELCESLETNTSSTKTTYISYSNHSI

| SMILES | z-score |
| --- | --- |
| COc1ccccc1-c1nc(C#N)c(N2CCN(c3ccccc3)CC2)o1 | -0.158 |
| COc1ccc(S(=O)(=O)NCc2ccccn2)c(Cl)c1Cl | 0.145 |
| O=C(O)C1CCCCC1C(=O)Nc1cccc(C(=O)N2CCCCC2)c1 (stereo not given) | -0.189 |
| CCOC(=O)C1=C(c2ccccc2)NC(SCC(=O)Nc2cccc(C)c2)=C(C#N)C1c1ccco1 (stereo not given) | -0.432 |
| O=C(Nc1ccc(F)cc1)C(c1ccccc1)N1CCN(C(=O)c2ccco2)CC1 (stereo not given) | -0.404 |
| CC1=NNC(=O)C1CCC(=O)N/N=C\c1ccccc1[N+](=O)[O-] (stereo not given) | -0.336 |
| COc1cc(/C=N/NC(=O)c2sc(N)c(C#N)c2C)cc(Br)c1O | -0.544 |
| O=[N+]([O-])c1nn(-c2ccc3c(c2)OCCO3)n(O)c1=NC1CCCCC1 | -0.7 |
| O=C(NS(=O)(=O)c1ccc2c(c1)OCCO2)c1ccccc1 | -0.389 |
| O=C(CSc1nc2ccccc2c(=O)n1-c1ccc(F)cc1)Nc1ccc2c(c1)CCC2 | -0.356 |
| CCOc1ccc2nc(NS(=O)(=O)Cc3ccccc3)sc2c1 | 0.192 |
| CCn1cc(C(=O)NC(=S)Nc2cccc(O)c2)cn1 | -0.169 |
| Cc1noc(COc2ccccc2OCC(O)CNC(C)(C)C)n1 (stereo not given) | 0.12 |
| CCc1nnc(NC(=O)c2ccc(S(=O)(=O)NC3CCCCC3)cc2)s1 | 0.217 |
| O=C(CCC1CCCCC1)Nc1ncn[nH]1 | 0.302 |
| COc1ccccc1-c1cc(C(=O)N/N=C/c2cccs2)c2ccccc2n1 | -0.163 |
| CC(C)(C)n1nnnc1C(c1ccc(Cl)cc1)N(Cc1cccnc1)Cc1ccco1 (stereo not given) | 0.14 |
| O=C(Cn1c(NCCCO)nc2ccccc21)c1ccco1 | -0.0827 |
| O=C(CSc1nc(-c2ccccc2)nc2c1CCCC2)N1CCOCC1 | -0.533 |
| O=C(CN1C(=O)c2ccccc2C1=O)Nc1cccc(S(=O)(=O)Nc2ccccc2Cl)c1 | -0.343 |
| Cc1ccccc1Nc1nc(N)nc(CSc2nc3ccccc3s2)n1 | 0.0755 |
| O=[N+]([O-])c1ccc(N2CCN(S(=O)(=O)c3ccccc3[N+](=O)[O-])CC2)cc1N1CCc2ccccc2C1 | -0.00158 |

| SMILES | z-score |
| --- | --- |
| CC(=O)c1cccc(NC(=O)CSc2ccc(-c3ccc4c(c3)OCO4)nn2)c1 | -0.27 |
| CCCCNc1nc2c(c(=O)n(C)c(=O)n2C)n1Cc1cccc(OC)c1 | -1.56 |
| COc1ccc(N2CCN(C(=O)CN(Cc3ccc(Cl)cc3)S(C)(=O)=O)CC2)cc1 | 0.0425 |
| COc1ccc2[nH]c(C)c(C(=O)CN3CC(C)OC(C)C3)c2c1 (stereo not given) | 2.96 |
| CCOC(=O)c1[nH]c(C)c(CCC(=O)O)c1C | -0.119 and -0.103 |
| CS(=O)(=O)N1CCN(c2cccc(Cl)n2)CC1 | 0.0109 |
| COC(=O)c1nc2ccccc2s1 | -0.349 |
| Cn1nnnc1SCSc1nnnn1C | -0.163 |
| CCCC1(CCC)C(=O)NC(=NCCc2ccc(OC)c(OC)c2)NC1=O | -0.0922 |
| CCOC(=O)/C(C#N)=C1\C=CN(C)C(C)=N1 | -0.205 |
| Cc1cc(Nc2nnnn2-c2ccccc2)n(-c2ccc(Cl)cc2)n1 | -0.187 |
| O=C(NC1CCCC1)C(c1ccsc1)N(C(=O)Cc1cccs1)c1cccc(F)c1 (stereo not given) | -0.187 |
| O=C(CNC(=O)c1ccc(N2C(=O)c3ccccc3C2=O)cc1)OCC(=O)c1ccc(Cl)cc1 | 0.702 |
| Cc1cc(Br)c(Cl)cc1NC(=O)CN1C(=O)C2C3CC(c4ccccc4)C(C3)C2C1=O (stereo not given) | -0.22 |
| CC(NC(=O)COc1ccc(Br)cc1)C(=O)O (stereo not given) | -0.000757 |
| Cc1oc(-c2ccc(Cl)cc2)nc1CN1CCCC(C(=O)N2CCN(C(=O)c3ccco3)CC2)C1 (stereo not given) | -0.175 |
| O=C1CCCc2nc3nc4ccccc4n3cc21 | -0.489 |
| FC(F)(F)c1nc2ccccc2n2c(-c3c(Cl)cccc3Cl)nnc12 | -0.39 |
| Cc1ccc(-c2[nH]nc3c2C(c2ccccc2OC(=O)N2CCOCC2)C(C#N)=C(N)O3)cc1 (stereo not given) | 0.221 |
| Cn1c(-c2ccc(N)cc2)nc2ccccc21 | -0.294 |
| CCC1S/C(=N\S(=O)(=O)c2cccs2)N(C2CCCCC2)C1=O (stereo not given) | 0.599 |
| O=C(Nc1ccccc1)c1sc(N2CCOCC2)nc1-c1ccccc1 | -0.556 |

| SMILES | z-score |
| --- | --- |
| COC(=O)c1sc2nc(-c3ccco3)ccc2c1N | 2.53 |
| O=C1N2CN(C(c3ccccc3)c3ccccc3)CN=C2SC1(CO)CO | -0.197 |
| O=C(Oc1cccc2cccnc12)c1cccs1 | -0.532 |
| Cc1ccc(S(=O)(=O)N/N=C/c2cccc(OC3CSC3)c2)cc1 | -0.12 |
| CC(C(=O)N1c2ccccc2CCc2ccccc21)n1nnc(-c2ccc(N(C)C)cc2)n1 (stereo not given) | 0.255 |
| C/C(=N\NC(=O)CSc1nc(C)cc(C)n1)c1cccc([N+](=O)[O-])c1 | -0.26 |
| COCCCNC(=O)c1cccc(C(=O)NCCCOC)c1 | 0.176 |
| O=S(=O)(c1ccc2c(c1)OCCO2)N1CCC(c2nc3ccc(Cl)cc3[nH]2)CC1 | -1.35 |
| CC1CN(Cc2ccc(C#N)cc2Cl)CC(C)O1 (stereo not given) | 0.188 |
| c1ccc(-c2nc3ccccc3nc2-c2ccccn2)nc1 | -0.18 |
| O=C(CCNc1ccc(F)c(Cl)c1)c1ccco1 | -0.0492 |
| O=C1CCCC2=C1C(c1ccsc1)CC(=O)N2c1ccccc1 (stereo not given) | -0.654 |
| COc1ccccc1N1CCN(C(=O)C(Cc2ccccc2)NC(=O)C2CCCCC2)CC1 (stereo not given) | -0.152 |
| O=C(Cn1cnc2c(nnn2-c2ccc(F)cc2)c1=O)N1CCCc2ccccc21 | -0.225 |
| Cc1ccccc1-c1nc(CN2CCC(C(=O)NCC3CCCO3)CC2)c(C)o1 (stereo not given) | -0.924 |
| Cc1cccc(NC(=O)/C(=C/c2cccc([N+](=O)[O-])c2)NC(=O)c2cccs2)c1 | -0.136 |
| COc1ccc(C(=O)Nc2c(Cl)cc(Cl)cc2C(=O)NCc2ccco2)cc1 | 0.018 |
| COc1ccc(S(=O)(=O)Nc2ccc(F)c(F)c2)cc1Cl | 0.0596 |
| CCc1ccc(CCC(=O)Nc2nc(CC(C)=O)ns2)o1 | -0.328 |
| CCc1cccc2c(C=C(C#N)C#N)cn(CC(=O)N3CCCCC3)c12 | 0.0776 |
| Cc1c(O)nc(SCC(=O)Nc2ccc3c4c(cccc24)CC3)n(-c2ccccc2)c1=O | -0.768 |
| Cc1nn2cc(-c3ccccc3)nc2[nH]c1=O | -0.356 |

| SMILES | z-score |
| --- | --- |
| CCOCCn1c(-c2ccc(OC)cc2)nc2ccccc21 | -0.61 |
| O=C(c1ccc(S(=O)(=O)N2CCCCC2)cc1)N1CCN(Cc2ccc3c(c2)OCO3)CC1 | -0.213 |
| Cc1cccc(OCCCOc2cccc3cccnc23)c1C | -0.0288 |
| O=C1NC(=O)/C(=C\c2ccccc2Oc2ccc(F)c(F)c2)S1 | -0.312 |
| O=C(O)c1ccccc1CSc1nc2ccccc2o1 | -0.428 |
| Cn1c(=O)n(CCC(=O)O)c2ccccc21 | 0.0564 |
| Cc1ccc(Cl)cc1N1CCN(c2cccc[n+]2C)CC1 | -0.306 |
| COC(=O)c1ccccc1NC(=O)C1CCN(S(C)(=O)=O)CC1 | 0.371 |
| Cc1sc2nnn(CC(=O)N3CCN(C(=O)c4ccco4)CC3)c(=O)c2c1C | 0.22 |
| COc1cc(C)c(Cl)c(C)c1S(=O)(=O)NCc1cccnc1 | 0.0631 |
| COc1ccc(OC)c(C(=O)COC(=O)c2ccccc2O)c1 | 0.0993 |
| COC(=O)c1c(NC(=O)c2nc3nc(C)cc(C(F)F)n3n2)sc2c1CCC2 | -0.194 |
| O=c1oc2ccccc2c(N2CCCCC2)c1CN1CCCC1 | 0.0491 |
| COP(=O)(OC)C(Nc1ccc(C)cc1)c1ccc([N+](=O)[O-])cc1 (stereo not given) | 0.0422 |
| C=CCOc1cccc(/C=N/NC(=O)CN(c2cc(Cl)ccc2OC)S(=O)(=O)c2ccc(C)c([N+](=O)[O-])c2)c1 | -0.0532 |
| Cc1ccc(N2C(=O)N(CC(=O)N3CCCc4ccccc43)C(=O)C2C)cc1 (stereo not given) | -0.267 |
| NS(=O)(=O)c1ccc(NCc2cc(Cl)ccc2OCc2ccc(F)cc2)cc1 | -0.563 |
| O=C(CCS(=O)(=O)c1ccc(Br)s1)N1CCc2ccccc21 | 0.863 |
| COc1ccc(-c2cc(C(=O)n3cnc4ccccc43)c3ccccc3n2)cc1 | -0.115 |
| CC1CN(C2CCN(C(=O)COc3ccc(Cl)cc3)CC2)CC(C)O1 (stereo not given) | 0.0882 |
| CCOC(=O)CCNC(C)C1COc2ccccc2O1 (stereo not given) | 0.297 |
| Cc1ccc(S(=O)(=O)NCC(=O)NC2CCCCCC2)cc1 | 0.858 |

| SMILES | z-score |
| --- | --- |
| COc1ccccc1NC(=O)CSc1nnnn1-c1ccc(C)cc1 | -0.183 |
| CCCCc1c(C)nc2ccccc2c1SCCC#N | -0.338 |
| Cc1ccc(S(=O)(=O)NCC(c2cccnc2)N(C)C)cc1 (stereo not given) | -0.209 |
| Cc1ccc(N2CC(C(=O)NCc3cccnc3)CC2=O)cc1 (stereo not given) | 0.0646 |
| CCOC(=O)C1=C(CN2CCN(c3ccc(F)cc3)CC2)NC(=O)NC1c1cccs1 (stereo not given) | -1.46 |
| Cn1c(=O)c2c(nc(CN3CCN(Cc4ccccc4)CC3)n2CCN2CCOCC2)n(C)c1=O | 0.778 |
| COc1cccc(C(c2sc3ncnn3c2O)N2CC(C)OC(C)C2)c1 (stereo not given) | 1.01 |
| COc1ccc(CN2CCn3ncc(C(=O)Nc4ccccc4)c3C2=O)cc1 | -0.121 |
| CCCCCNC(=O)c1ccccc1SC | 0.0023 |
| Clc1ccc(SCCCCn2ccnc2)cc1 | 0.598 |
| CCc1nnc(NC(=O)c2ccc(-c3cc(C(F)(F)F)ccc3Cl)o2)s1 | -0.484 |
| Cc1cc(NC(=O)CSc2nc3ccsc3c(=O)n2CCCCC(=O)O)no1 | -0.312 |
| CCOc1ccc(N/N=C(/C#N)C(N)=O)cc1 | -0.0669 |
| O=c1ccc2cc(S(=O)(=O)Nc3ccc(F)cc3)ccc2o1 | -0.226 |
| CCOc1ccc(N(C(C)C(=O)NC2CCCCCC2)S(C)(=O)=O)cc1 (stereo not given) | 0.52 |
| CCOc1cc(C2c3c(n[nH]c3C)C(=O)N2c2ccc(C)cc2)ccc1O (stereo not given) | -0.47 |
| Cn1nc(CC(=O)NCc2ccc(F)cc2)c2ccccc2c1=O | -0.367 |
| Cc1cc(C(=O)NCC(=O)OCC(=O)N(C)C2CCCCC2)ccc1[N+](=O)[O-] | 0.828 |
| CS(=O)(=O)N(CC(=O)O)c1cc(Cl)cc(Cl)c1 | -0.172 |
| Cc1nc2sc(C)c(C)c2c(=O)[nH]1 | -1.16 |
| CN(/N=C/c1cccnc1)C1=NS(=O)(=O)c2ccccc21 | 0.273 |
| CC(=O)NC(Cc1ccccc1C)C(=O)NC1CCN(c2ncccc2[N+](=O)[O-])CC1 (stereo not given) | -0.207 |
